# Source: the supplement of paper PMC3334620
# In all, about 33,000 sequences were measured (“E-score (-0.5 to 0.5)”: median about -0.011, highest 2% from about 0.28 on). This is one part of the list.
# Target: T1, Gcr1 (UniProt P07261)
# T1 sequence: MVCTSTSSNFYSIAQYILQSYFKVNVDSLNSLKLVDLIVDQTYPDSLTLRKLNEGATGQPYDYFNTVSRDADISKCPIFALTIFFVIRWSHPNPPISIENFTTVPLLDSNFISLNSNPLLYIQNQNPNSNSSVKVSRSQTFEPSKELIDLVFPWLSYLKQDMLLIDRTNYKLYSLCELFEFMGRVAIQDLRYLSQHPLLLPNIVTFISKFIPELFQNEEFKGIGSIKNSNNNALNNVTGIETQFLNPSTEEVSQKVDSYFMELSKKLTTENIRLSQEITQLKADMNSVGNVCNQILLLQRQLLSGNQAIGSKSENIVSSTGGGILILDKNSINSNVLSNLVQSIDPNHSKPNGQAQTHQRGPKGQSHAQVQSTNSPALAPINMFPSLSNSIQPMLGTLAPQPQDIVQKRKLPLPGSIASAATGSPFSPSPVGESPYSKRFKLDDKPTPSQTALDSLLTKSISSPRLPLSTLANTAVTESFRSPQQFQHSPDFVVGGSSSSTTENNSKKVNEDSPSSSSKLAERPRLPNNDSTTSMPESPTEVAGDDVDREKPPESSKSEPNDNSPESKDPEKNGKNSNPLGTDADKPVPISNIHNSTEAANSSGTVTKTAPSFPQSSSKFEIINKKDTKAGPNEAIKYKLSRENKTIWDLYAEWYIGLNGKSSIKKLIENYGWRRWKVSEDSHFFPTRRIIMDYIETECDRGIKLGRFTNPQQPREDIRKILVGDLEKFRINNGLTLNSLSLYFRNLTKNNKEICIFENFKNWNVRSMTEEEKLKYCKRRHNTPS
# Assay: PBM E-score (8-mer binding enrichment) (E-score (-0.5 to 0.5)); higher = stronger / more preferred TF binding; most listed sequences are background and not binding sites
# Conditions: protein concentration: 100 nM; construct: GST-full length
# Outline: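 Detection of bound protein used fluorescent anti-GST, with scans normalised by masliner. The proteins were GST-tagged yeast transcription factors applied at about 100-200 nM to universal all-10-mer Agilent arrays made double-stranded by primer extension. Each ungapped eight-base word, pooled with its reverse complement, was scored with an E-score from the Universal PBM Analysis Suite.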
row,Sequence,PBM E-score
1,ATGCCGCG,0.0711
2,CCTCATCG,-0.243
3,CGAATGCC,-0.132
4,CGCAACCC,0.0713
5,CTGTCAGC,-0.0401
6,ATCGAGGG,-0.169
7,ACTACTGG,0.139
8,GACTGGAC,0.0539
9,CTAGACTA,0.0904
10,CTTAAACA,-0.09
11,CTAGGGGC,-0.082
12,GCCAGTAC,-0.101
13,GGACCATA,0.0965
14,GTGCGGAA,0.0136
15,GATTCAAC,-0.112
16,ATGACCAC,-0.153
17,AATTCCGC,0.178
18,AAAAGCAT,0.135
19,CACAGATA,0.0234
20,ACGCATTC,0.0779
21,ACTTCACG,-0.138
22,AGCGACGC,-0.0077
23,AAACACCG,-0.0471
24,ACGATAGC,-0.109
25,ACTTTAGA,-0.00396

row,Sequence,PBM E-score
1,CAGTCTGC,-0.144
2,AGGGACAC,-0.00778
3,GGGGCTTA,-0.192
4,CGCTTAGC,-0.0367
5,ACGAATAT,0.115
6,CCGTGGCA,-0.0521
7,AGCACCCG,0.282
8,GCGGCTCC,0.22
9,ACCTATTG,-0.0304
10,ATCACCCA,-0.0228
11,GGTTATTA,0.0421
12,GTACGACA,-0.0554
13,GGATCACC,-0.12
14,CTTAATTC,0.123
15,GACAGCGA,-0.198
16,ATATAGCG,0.0331
17,AGCACCAT,0.282
18,CTCCGTCC,-0.0374
19,CAACGTGC,0.0253
20,GAATCCAC,0.224
21,CATATCCG,-0.012
22,CGTGCAAG,-0.242
23,AGCTCTAT,-0.149
24,AGGTAAAC,-0.13
25,AACGCCCA,-0.00095

row,Sequence,PBM E-score
1,CACAGGGA,0.129
2,CGTTCGGA,-0.0395
3,CAGAAACC,0.193
4,CTCCACTC,0.022
5,CGCCTTAG,0.0337
6,AGCTGTCA,-0.125
7,AACGGCTC,0.0408
8,ACGCGTGA,0.187
9,ACTGTGGC,0.121
10,GGTAACTA,0.0673
11,CGGCCGGC,-0.163
12,AACGTACA,-0.164
13,CCTAAAAG,0.0659
14,CAGGAAAG,-0.0487
15,GGCAGTCA,-0.103
16,CAAGGCTG,-0.147
17,CGTGCGTC,0.0849
18,CATTCACC,-0.078
19,ATATCGCG,0.0825
20,AACGGAGA,-0.0758
21,CACAGGCA,0.125
22,CGTTGATC,-0.182
23,CCTAGCCC,-0.0765
24,AAAGATGT,0.107
25,GAGGAGCC,0.118

row,Sequence,PBM E-score
1,AAACTACT,0.0652
2,GACCGGTA,-0.00353
3,AGCGAGCT,-0.0498
4,CGCGTGAG,0.147
5,AGGTTCAC,-0.122
6,ACTCCAGG,0.0977
7,GCTAGTAA,0.215
8,AGTGTATA,-0.263
9,CAATCTAA,-0.181
10,GAGTTCGC,-0.122
11,GACGCCCC,0.0383
12,CCAGATGC,0.257
13,ATTCTCTA,-0.228
14,TAAGTCCA,-0.0398
15,ACACAAGT,-0.00802
16,TCGCCGAA,0.0743
17,CGTGTTTC,0.146
18,TCCTCCGA,-0.138
19,ATATCAGA,-0.0028
20,GTAGATAA,0.068
21,AATGAGAT,0.0913
22,AAGCGTAG,0.0218
23,ATAACCAG,-0.0278
24,ATCGCCAG,-0.0225
25,CCAAAGAC,0.0729

row,Sequence,PBM E-score
1,CAGCGACG,0.027
2,CAGGCATG,-0.00554
3,AACGATGT,-0.0499
4,AGCGATCC,-0.175
5,GCTCTGGA,0.152
6,AGCTCCCT,0.0321
7,ATGCAGGA,0.207
8,CATAGAAA,0.114
9,GTTACGTA,-0.102
10,GCTAGACC,-0.176
11,AGTTACCA,-0.0819
12,CATGTGCA,-0.0549
13,AGCATGGC,-0.215
14,ACGGAGGG,-0.192
15,CCTGTACA,0.0853
16,GGTAAATA,0.13
17,CTTAAGTA,0.0424
18,CCAATTCA,0.0362
19,ATACATAA,0.0469
20,GCCATATA,0.011
21,CCACACAG,-0.0371
22,GCGGGATA,0.0374
23,AGGAGACG,0.213
24,CGCAAGAC,-0.0974
25,CCGGTAGA,-0.0529

row,Sequence,PBM E-score
1,AATCGCTC,-0.149
2,AGAGCACA,0.042
3,TACGACCA,-0.11
4,ACCTATAT,0.194
5,CAACCAGG,-0.0681
6,AAGTTATG,-0.0312
7,ATCTACGA,0.0323
8,ACGTGAGT,-0.186
9,GAAGTATC,-0.128
10,ACTGGGAA,0.0642
11,GCTTTTGA,0.0765
12,CATCATGG,-0.076
13,CTCTTCAC,-0.0609
14,CCATCGGC,0.046
15,AATAATCA,0.118
16,CACGTGAC,-0.0941
17,CAATTAGA,0.215
18,GCCGGTTA,0.0616
19,GCACGAGA,-0.157
20,AGCTCCAG,0.0423
21,CATTTTAA,0.252
22,CCGCGATA,0.0744
23,GACTTCAA,-0.0566
24,CAAGTCGA,-0.0784
25,AGCCCGAA,0.17

row,Sequence,PBM E-score
1,CGCACGAA,0.11
2,AGAGAACT,-0.096
3,ACAGCGTG,-0.00712
4,ACTTGGTG,0.0131
5,CCGGTGTC,0.0561
6,GGTCGCTA,0.145
7,AGGACGCA,0.0414
8,CCCCGCGG,0.0127
9,ACCACTGC,0.156
10,TCGCTCCA,0.0268
11,GCACAACA,-0.0968
12,AAGCTATG,-0.255
13,ACTCGGAT,0.0892
14,AAGAGCAG,-0.031
15,GATCGTCA,-0.249
16,GGTTTATA,-0.0162
17,ATCGTCGA,-0.154
18,GCTAGAAC,-0.0293
19,CCTGGCCA,-0.203
20,AGGTCAAC,-0.147
21,GTCTCTCA,-0.0771
22,ATAATACC,0.201
